Measurements published in the supplement of paper PMC11417369.
± gives the standard deviation of the averaged measurements. This is one part of the list.

tested on: PfAP2-LT AP2 domain (GST-tagged); test: gcPBM binding intensity (ln(normalized median fluorescence intensity)); higher = stronger DNA binding
How it was run: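 Using an Agilent 4 × 180k array, primer-extended double-stranded 36-bp intergenic genomic probes and negative controls were exposed for 1 h to GST-fused P. falciparum DNA-binding domains expressed in E. coli. Binding was carried out in 1× PBS with 1% milk, 0.2 mg/ml BSA, 0.5% salmon testes DNA and 0.03% Triton X-100, and protein was detected with Alexa488 anti-GST antibody and a 488 nm scan. Binding intensity is the highest Masliner-normalised natural-log median intensity across replicate spots of either probe orientation.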

| Sequence | gcPBM binding intensity (ln) |
| --- | --- |
| AAATCATTCCTTTATTCACACAATATCTGTATTTAT [CACACA_site4407] | 8.97 ± 0.45 |
| TAAACATATAAAAAGGGTACACATTAAACATAGTAT [XGTACX_site7096] | 9.01 ± 0.4 |
| TTAAGCCGCAATATGGGTACATAGGAAGAAGGGGAA [XGTACX_site8397] | 8.74 ± 0.54 |
| ATATATAAAAATATTTGTACATATAGTTATATTTAT [XGTACX_site6114] | 8.73 ± 0.42 |
| TTCTTTGCTTCTGTTTCACACATTTTTAAAATAAGC [CACACA_site4741] | 8.9 ± 0.42 |
| TTATAATTAAGATATAATCAATAATAACAAATGAAC [CACACA_negctrl_site1690] | 8.64 ± 0.52 |
| TTTCTTTTTCTAGTTATTTTTACTTATCCCTAATTT [TGCATGCA_negctrl_site460] | 8.62 ± 0.56 |
| TTAAAGGGAATGTATACACACGTTTCTCTATGTTAT [CACACA_site4793] | 8.96 ± 0.4 |
| TAATTCCATAAGTAAACACACAAATGCCAAAATTTT [CACACA_site3205] | 8.84 ± 0.4 |
| GTGCGTGCGTGTACTTAACACACATAATATGTATTT [CACACA_site8336] | 9.21 ± 0.42 |
| TCCATATGCAAACTGGTGCACAAGTAGCTTTTATAT | 8.77 ± 0.31 |
| ATTGTCCTAAATACTACAAAGTAGATCTTTAATATT [CACACA_negctrl_site1795] | 8.58 ± 0.41 |
| CAAAAAAGGTCCCGGAGTACATATATAATTTTTTTT [XGTACX_site458] | 8.59 ± 0.4 |
| GAGATGACATTACACAGTACCCAGGAAATCTACGGA [XGTACX_site4931] | 8.91 ± 0.51 |
| TATATATTGTTATATACACACATGTATATAAAAAAT [CACACA_site3221] | 8.87 ± 0.35 |
| TGTGTATTATAAACATGTACATAAAAATACGATATT [XGTACX_site3643] | 8.93 ± 0.34 |
| CGCACTAAAAAACACACACACACACCCATATATATA [CACACA_site4152] | 10.2 ± 0.29 |
| AAAAAAAAATAATATACACACTCCAATATAAAAAAT [CACACA_site3958] | 9.06 ± 0.38 |
| TTTTTTAAAATAATAGGTACACATAAAAAAAAAAAA [XGTACX_site2517] | 8.39 ± 0.33 |
| AATGATGTTGTATTGTTTCGATATAACATCTAATTT [GTGCAC_negctrl_site309] | 8.62 ± 0.3 |
| TTTTTTCATTTTTTATTTTTTTATTTTTTACATATT [GTGCAC_negctrl_site137] | 8.68 ± 0.6 |
| AAGGATTATTTTAATCGTACATGTGTAAATAATATA [XGTACX_site6177] | 8.75 ± 0.49 |

| Sequence | gcPBM binding intensity (ln) |
| --- | --- |
| TTATTTATTTTCATATGTACTTATTTATAGAGGTTG [XGTACX_site5599] | 8.72 ± 0.52 |
| CATACATACATACATACACACATATATATATATATG [CACACA_site1995] | 9.46 ± 0.26 |
| TATATATATAGACACACACACATATAAATAAATAAA [CACACA_site444] | 9.56 ± 0.34 |
| ATATAATAACAAAAGGTGCGCATTAAGACAAAAAAA | 9.27 ± 0.49 |
| TTTTTCCCCCTTTTTTTGATTTTTATCTTAATTCTA [TGCATGCA_negctrl_site287] | 8.59 ± 0.5 |
| TATTATATTGTTCATTTACACTTTCATTTTAAAAAA [CACACA_negctrl_site260] | 8.53 ± 0.42 |
| ATATAATAAAATTAATGTACATATATGTATTATATA [XGTACX_site3283] | 8.87 ± 0.48 |
| TTTCATATATATGAAACACACAAAGGAAAAAAAATT [CACACA_site4144] | 8.84 ± 0.45 |
| ACAAGTTTATTTGTTGCACACATATAAGTAGAGAAA [CACACA_site8994] | 8.88 ± 0.46 |
| AAAAAAAAAAAACACACACACATAGACCTCCAATAG [CACACA_site3562] | 9.77 ± 0.25 |
| AACATAATCTCATATACACACAAAAATATTGAAATA [CACACA_site7085] | 9.04 ± 0.28 |
| GCTCATATGACAACAACACACAAAAAAATAAAATGA [CACACA_site714] | 9.12 ± 0.5 |
| ATATTTTGTTATGTAGATGTTGGTAGGAATTTTGGT [CACACA_negctrl_site1104] | 8.83 ± 0.4 |
| AATAAATAAATAAATAAAACAAAGGGATTACATACA [TGCATGCA_negctrl_site513] | 8.81 ± 0.53 |
| CACAACATATATATATATATATATATATATATGTGT [CACACA_negctrl_site28] | 9.44 ± 0.57 |
| TACTTTTTAGGAAAGTGTACAAGCATATAAGGAATA [XGTACX_site2834] | 8.65 ± 0.54 |
| TTAAAAAAATATTGAAGTACACACATTATAAACTTT [XGTACX_site3548] | 8.69 ± 0.47 |
| ATATTTAACAGGTTAAAAATATAAACAAATAAATAA [CACACA_negctrl_site907] | 8.53 ± 0.57 |
| GAGAGGATAGTTCACAGTACTCAGTAACTCTACGGA [XGTACX_site4875] | 8.87 ± 0.44 |
| TAATAATATATTTGTAGTACACAATTTTTTATAACT [XGTACX_site3951] | 8.6 ± 0.52 |
| TACTTATATACACATGTATATTATATATATAATATA [XGTACX_negctrl_site335] | 8.72 ± 0.38 |
| TGTTATTAAAATATAGTGCATAATTAACCATTATAA [GTGCAC_site9594] | 8.54 ± 0.5 |

| Sequence | gcPBM binding intensity (ln) |
| --- | --- |
| CACACGCACGGACACACACACATATAAAATCTATAT [CACACA_site6428] | 9.85 ± 0.57 |
| TACTATAACAGACATACACACAAAAAAAAAAAAAAA [CACACA_site538] | 9.03 ± 0.47 |
| AATATATAAATTGACACACACATATATACATATATA [CACACA_site1213] | 9.29 ± 0.32 |
| TGTTAATATATCATTATGTTATAGGTTCAGCTGGGA [CACACA_negctrl_site401] | 8.56 ± 0.38 |
| GATATGTTTTCCTAGGTTCATGATGATAGGTAGTTT [XGTACX_negctrl_site217] | 8.94 ± 0.48 |
| TTTGTGGTTACATGTGCACACACTTATTTCGTTCTT [CACACA_site1435] | 9.59 ± 0.45 |
| TATATTTGTTAATTTTGTACGTATGGATATACATAA [XGTACX_site5100] | 8.61 ± 0.43 |
| TATAAATATAGAATTACACACAATGTTCTATAAATA [CACACA_site7508] | 8.67 ± 0.47 |
| AAGGTGGTTATTAAATGTACACAGACATATACAAAA [XGTACX_site3007] | 8.82 ± 0.46 |
| AGGTAGAAAAAAGACACACACATTATATATATATAT [CACACA_site4367] | 9.61 ± 0.29 |
| TAATATAAAGAAATATCAATAATTTGGGCAAATGCC [GTGCAC_negctrl_site621] | 8.34 ± 0.52 |
| ATATGCTACATTATATGTACACACATATACATATAT [XGTACX_site1656] | 9.46 ± 0.39 |
| TTTTATGCATGTGAAGTGCAAAATAAAAAATAAAAT [GTGCAC_site9612] | 8.79 ± 0.49 |
| TTCATTCATTTTATTACACACAAAAAAAAAAAAAAA [CACACA_site3680] | 8.48 ± 0.3 |
| AGTTATTTTATAGAATATGAATAATTTTACTTTTCA [XGTACX_negctrl_site403] | 8.49 ± 0.4 |
| AAAAAAAAAGGTACTACACACTATTCTCAATAGAAA [CACACA_site6193] | 8.85 ± 0.52 |
| AATTTCATTTTACTTATCTAATATTTATAATCTTTT [CACACA_negctrl_site636] | 8.65 ± 0.47 |
| AATAATATACCTCTTGTGCACATATTAAAAGTTCAT [GTGCAC_site9536] | 8.88 ± 0.39 |
| TTCGTCTTTTTTCTCACACACCCTTTTTATTAAAAG [CACACA_site7225] | 9.05 ± 0.6 |
| AGAATTAAAATAAAGGTGCATTTTTTTGTTTCATGT | 8.7 ± 0.43 |
| AAAGAATACATATATTGTACATATATATATACCGTT [XGTACX_site6250] | 9.02 ± 0.45 |
| ATAATACAAAACACAAGTACATAAATTAAAAAGATG [XGTACX_site7839] | 9.12 ± 0.5 |

| Sequence | gcPBM binding intensity (ln) |
| --- | --- |
| ATATATATTAAAAATAGTACATATAATAAAAATCAT [XGTACX_site4265] | 8.87 ± 0.35 |
| AACGATATAGGTACTACACACATTATGTCATCCTAT [CACACA_site7205] | 9.37 ± 0.28 |
| TACATATTCCTACAAATGTATAAATTATAAATATTA [XGTACX_negctrl_site30] | 8.36 ± 0.49 |
| ATATGAAATATATGTAGTACACATAATTAAAAGTAG [XGTACX_site6490] | 9.08 ± 0.38 |
| TGTATATGTTTAATTAGTACATATAAAGTAACAATA [XGTACX_site1207] | 8.72 ± 0.39 |
| TTAGGATATTTATTTCGTACATATATTTTTAATTGT [XGTACX_site582] | 8.69 ± 0.47 |
| AATTTTTATATAATTTAACACACATTTCATATAAAA [CACACA_site9018] | 8.53 ± 0.38 |
| TACTTCATATAATTAGCACACAATAATTTCTCATTT [CACACA_site2872] | 8.87 ± 0.49 |
| TATAAATTATTTATCACACATAAAACAAAAATAAGA [CACACA_site5493] | 8.65 ± 0.44 |
| ATCCGTGGGTGAAATACACACATGATAATGTGAATG [CACACA_site4662] | 9.04 ± 0.44 |
| ATAAATGAACAAGTGGCACACACACCGTATAACTAA [CACACA_site9047] | 9.47 ± 0.45 |
| TGAAAAATATAAGGTTGTACTTACATCGGGAATAAT [XGTACX_site4701] | 8.81 ± 0.47 |
| AATTATGTGTGTCAATGTACACGATTTACATAATAT [XGTACX_site5150] | 9.11 ± 0.36 |
| AATATATGGTTTCTTGATATTAAATTCAATTTAATG [CACACA_negctrl_site69] | 8.51 ± 0.41 |
| ACACATACAACGTGGTGTACAAATAATTATAATCAA [XGTACX_site2287] | 9.19 ± 0.63 |
| AATCTTTGTAATAAAAGTACATTAATTTTATTAATA [XGTACX_site8325] | 8.3 ± 0.5 |
| TAAGTATATATATTTACACACATTTGTTTTTTTTTA [CACACA_site3784] | 8.96 ± 0.45 |
| TTTTAAATACTTTATTGTACATTATATATATATATA [XGTACX_site7021] | 8.74 ± 0.39 |
| AAAAAAAAAAAAAAAAGTACATATAATAAATAATGA [XGTACX_site7931] | 8.49 ± 0.55 |
| TATATCTTAATATTTACACACATGCGCACCCATAAA [CACACA_site5349] | 9.27 ± 0.38 |
| ATATAAACACTGAATGCATGCACATATATATATATA [TGCATGCA_site940] | 9.93 ± 0.26 |
| ATAAAGGAATTTTATACACACAACATATATATATAT [CACACA_site2861] | 9.28 ± 0.4 |
